Out of some 310,000 compounds screened, about 14,000 (4.5%) showed an effect of 50% or more. The effect is printed as a negative number. The list shows a part of the results.
Target: human ether-à-go-go-related gene (hERG) potassium channel (human, UniProt Q12809)
Test: primary screen, population patch clamp on CHO cells stably expressing hERG
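Note: peak tail current of the secondary pulse compared with the same well before compound.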

human ether-à-go-go-related gene (hERG) potassium channel, sequence (Q12809 whole entry, looked up): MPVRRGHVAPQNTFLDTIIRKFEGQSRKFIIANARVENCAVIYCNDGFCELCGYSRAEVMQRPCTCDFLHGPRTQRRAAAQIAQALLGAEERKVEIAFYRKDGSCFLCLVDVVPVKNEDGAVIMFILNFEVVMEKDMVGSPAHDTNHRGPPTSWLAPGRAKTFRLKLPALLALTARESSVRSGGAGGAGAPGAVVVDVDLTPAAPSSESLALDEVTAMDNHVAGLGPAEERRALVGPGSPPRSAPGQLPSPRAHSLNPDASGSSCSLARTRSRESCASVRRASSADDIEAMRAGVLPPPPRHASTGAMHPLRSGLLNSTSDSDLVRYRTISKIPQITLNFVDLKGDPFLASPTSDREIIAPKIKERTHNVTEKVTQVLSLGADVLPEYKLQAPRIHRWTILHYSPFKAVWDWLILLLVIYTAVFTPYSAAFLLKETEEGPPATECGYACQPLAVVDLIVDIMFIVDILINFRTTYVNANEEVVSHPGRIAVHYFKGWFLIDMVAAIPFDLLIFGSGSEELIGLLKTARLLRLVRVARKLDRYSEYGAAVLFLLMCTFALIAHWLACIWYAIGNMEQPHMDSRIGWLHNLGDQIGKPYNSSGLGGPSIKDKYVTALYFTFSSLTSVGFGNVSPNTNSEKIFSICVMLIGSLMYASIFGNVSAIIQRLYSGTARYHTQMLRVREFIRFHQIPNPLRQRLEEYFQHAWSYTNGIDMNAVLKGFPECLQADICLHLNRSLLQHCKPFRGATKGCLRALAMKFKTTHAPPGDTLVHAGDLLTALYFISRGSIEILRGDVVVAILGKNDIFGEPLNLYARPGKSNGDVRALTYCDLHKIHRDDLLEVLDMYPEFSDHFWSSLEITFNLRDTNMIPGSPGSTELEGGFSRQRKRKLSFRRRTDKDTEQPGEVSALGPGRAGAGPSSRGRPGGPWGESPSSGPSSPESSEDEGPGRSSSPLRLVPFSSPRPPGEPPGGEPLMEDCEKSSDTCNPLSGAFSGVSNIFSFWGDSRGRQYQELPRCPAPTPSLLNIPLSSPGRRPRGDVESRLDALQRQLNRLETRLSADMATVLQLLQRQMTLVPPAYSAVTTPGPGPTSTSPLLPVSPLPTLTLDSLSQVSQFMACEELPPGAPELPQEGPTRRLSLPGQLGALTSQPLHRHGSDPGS

SMILES | hERG current change (%, negative = inhibition) at 10uM [%]
O=C(O)c1ccccc1-c1ccccc1C(=O)NNc1ccc([N+](=O)[O-])cc1 | -0.0622
COCCNC(=O)CN1C(=O)COc2ccc(Cl)cc21 | 21.8
CCOc1cc(/C=C2\C(=N)N3N=CSC3=NC2=O)ccc1OS(=O)(=O)c1ccccc1 | -15
Cc1ccc(C(=O)OC(C)CN2C(C)CCCC2C)cc1.Cl (centres unmarked) | -43
C=CCNc1nc(Cl)nc(Nc2ccc(OC)cc2)n1 | -7.32
Cc1ccc(C)c(S(=O)(=O)N2CCN(C(=O)Cn3[nH]c(=O)c4ccccc4c3=O)CC2)c1 | -2.47
Cc1cccnc1NC(N)=S | 9.08
Cc1ccc(C2(C)NC(=O)N(CC(=O)c3ccc4c(c3)OCCO4)C2=O)cc1 (centres unmarked) | -2.04
COc1cccc2sc3ccc(NCCC4CCCN4C)cc3c(=O)c12 (centres unmarked) | 1.65
COc1ccccc1NC1=CC(=O)CC(c2ccccc2)C1 (centres unmarked) | -5.26
c1cnc2c(c1)ccc1ncccc12 | 14.1
CCCCCn1c(=O)[nH]c2cc(C(=O)NCCN3CCOCC3)ccc2c1=O | 3.63
Cc1c(CN(C)C)c2c(n1Cc1ccccc1)C(=O)c1ccccc1-2.Cl | -75.6
O=C(c1ccc2nc[nH]c2c1)N1CCN(S(=O)(=O)c2cccc(F)c2)CC1 | 12
Cc1cnnc2c1-c1nonc1CC2 | 3.76
O=C1CC(O)(c2ccccc2)C(c2ccccc2)=C1c1ccccc1 (centres unmarked) | 5.2
Cn1cnc([N+](=O)[O-])c1C(=O)Nc1cccc([N+](=O)[O-])c1 | -4.68
Cc1ccccc1NC(=O)c1ccc2c(c1)CCN2S(C)(=O)=O | 10.2
COc1ccc(S(=O)(=O)N(C)CC(=O)Nc2ccc(C)cc2)cc1OC | 0.815

SMILES | hERG current change (%, negative = inhibition) at 10uM [%]
O=C(CSc1nc(-c2cccs2)cc(C(F)(F)F)n1)NCc1ccco1 | -9.61
CC(C)/C=C1\CC/C(=C\c2cccnc2)C1=O | -10.9
CCn1c(SCC(=O)Nc2cc(C)on2)nc2sc3c(c2c1=O)CCCC3 | 10.2
O=C(CN1CCC(n2nnc3cc(F)ccc32)CC1)Nc1ccc2c(c1)CCC2 | -21.3
O=C(Nc1ccc(S(=O)(=O)NCc2cccnc2)cc1)c1ccco1 | 10.2
COc1ccc(N2CCN(CC(=O)Nc3cc(C)on3)CC2)cc1.O=C(O)C(=O)O | 0.616
O=C(c1ccccc1)c1cc2cc(Cl)ccc2[nH]1 | 15.1
CSc1nc(C)cc(Oc2ccc(=O)[nH]n2)n1 | 4.47
CN(C)C(=O)c1ccccc1Sc1cc(Cl)ccc1Cl | -14.5
O=C(NCCSc1c(-c2ccccc2)[nH]c2ccccc12)c1cc2ccccc2oc1=O | -9.48
COc1ccc(/C=N/NC(=S)Nc2ccccc2[N+](=O)[O-])cc1O | 11.5
Cc1cc(C(=O)COC(=O)c2ccccc2O)c(C)n1Cc1cccs1 | -5.84
Cc1cccc(Nc2c3c(nc4ccccc24)CCC3)c1.Cl | -71.5
O=C(Cn1nnc(-c2ccccc2)n1)NC(=O)NC1CCCC1 | 9.53
CCOc1ccc2nc(Cl)c(/C=C/C(=O)c3ccco3)cc2c1 | 14
Cc1cccc(C)c1NC(=O)CN(C)C(=O)C1CCCCC1 | -7.37
Cc1ccc(O)c(NC(=O)c2cccc(NC(=O)c3ccco3)c2)c1 | -46.5
Nc1nc(SCC(=O)NCCCN2CCOCC2)nc2sc3c(c12)CCC3 | -9.2
COc1ccc(C)cc1NC(=O)CN1C(=O)CSc2ccc(S(=O)(=O)N3CCCC3)cc21 | 18.9

SMILES | hERG current change (%, negative = inhibition) at 10uM [%]
O=S(=O)(c1cc(Cl)c(Cl)cc1Cl)N1CCN2CCCC2C1 (centres unmarked) | 2.05
C=CCn1cc(C(=O)NCc2ccco2)c(=O)c2cc(S(=O)(=O)N3CCCCCC3)ccc21 | -36.4
CN(CCO)c1c2c(nc3cc(-c4cccc(F)c4)nn13)CCCC2 | -40.2
O=C(NC1CCCC1)c1c[nH]c2ccc(F)cc2c1=O | 13.2
CC(C)(C)c1cc(C(F)(F)F)c(C#N)c(=O)[nH]1 | 25
Cc1ccc(-n2cccc2/C=C2\C(=N)N3N=C(C(C)C)SC3=NC2=O)cc1 | 11.4
Cc1c(Cl)cccc1NC(=O)CSc1nnc(CCNC(=O)OC(C)(C)C)o1 | -28.4
Cc1ccc(C(=O)COC(=O)c2ccc3c(c2)C(=O)N(c2cccc4ncccc24)C3=O)cc1C | 6.91
Cc1cc(C)n(-c2nc(NC(C)C)nc(NC(C)C)n2)n1 | -16.5
Cc1ccc(C2C3=C(CC(C)(C)CC3=O)NC3=C2C(=O)c2ccccc23)cc1 (centres unmarked) | -2.02
CC(C)(C)NC(=O)C(c1ccco1)N(C(=O)c1csnn1)c1ccccc1 (centres unmarked) | -4.55
C[C@@H]1C(=O)O[C@H]2[C@H]1CC[C@@]1(C)C(=O)C=C[C@@](C)(O)[C@H]21 | 15.6
Cc1cc(C)nc(/N=C(\N)Nc2ccc(S(=O)(=O)Nc3nccc(C)n3)cc2)n1 | 19.8
N#CC1=C2N=C(N)c3ccccc3N2C2=C(C(=O)CCC2)C1c1ccc(F)cc1 (centres unmarked) | -19.5
CC(CNC(=O)CCS(=O)(=O)c1ccc2c(c1)oc(=O)n2C)c1ccccc1 (centres unmarked) | 8.49
CCOC(=O)c1cnc2sccn2c1=O | 12.1
COc1ccccc1CN1CCCC(CN(CCN(C)C)C(=O)c2ccc(C)cc2)C1 (centres unmarked) | -12.9
Cc1ccc(NC(=O)CSc2nnc(-c3cccs3)o2)cc1S(=O)(=O)N(C)C | -5.04

— PMC4336329 (PLoS ONE, 2015)
